# This is one part of the list. These are further read-outs of the screen, such as a control signal, another cell line or another target. No call is given for them.
# Molecular target: Voltage-dependent N-type calcium channel subunit alpha-1B (Homo sapiens) (UniProt Q00975)
# Experiment: disruptors of CaV2.2 binding to Mint1 – biochemical, HTRF (AID 2073)
# Conditions: HTRF protein-protein interaction, Mint1-CaV2.2; measured here: average of repeat tests; at 20 µM; stronger effect = higher value
# Chain of UniProt Q00975 (Q00975 whole entry, looked up): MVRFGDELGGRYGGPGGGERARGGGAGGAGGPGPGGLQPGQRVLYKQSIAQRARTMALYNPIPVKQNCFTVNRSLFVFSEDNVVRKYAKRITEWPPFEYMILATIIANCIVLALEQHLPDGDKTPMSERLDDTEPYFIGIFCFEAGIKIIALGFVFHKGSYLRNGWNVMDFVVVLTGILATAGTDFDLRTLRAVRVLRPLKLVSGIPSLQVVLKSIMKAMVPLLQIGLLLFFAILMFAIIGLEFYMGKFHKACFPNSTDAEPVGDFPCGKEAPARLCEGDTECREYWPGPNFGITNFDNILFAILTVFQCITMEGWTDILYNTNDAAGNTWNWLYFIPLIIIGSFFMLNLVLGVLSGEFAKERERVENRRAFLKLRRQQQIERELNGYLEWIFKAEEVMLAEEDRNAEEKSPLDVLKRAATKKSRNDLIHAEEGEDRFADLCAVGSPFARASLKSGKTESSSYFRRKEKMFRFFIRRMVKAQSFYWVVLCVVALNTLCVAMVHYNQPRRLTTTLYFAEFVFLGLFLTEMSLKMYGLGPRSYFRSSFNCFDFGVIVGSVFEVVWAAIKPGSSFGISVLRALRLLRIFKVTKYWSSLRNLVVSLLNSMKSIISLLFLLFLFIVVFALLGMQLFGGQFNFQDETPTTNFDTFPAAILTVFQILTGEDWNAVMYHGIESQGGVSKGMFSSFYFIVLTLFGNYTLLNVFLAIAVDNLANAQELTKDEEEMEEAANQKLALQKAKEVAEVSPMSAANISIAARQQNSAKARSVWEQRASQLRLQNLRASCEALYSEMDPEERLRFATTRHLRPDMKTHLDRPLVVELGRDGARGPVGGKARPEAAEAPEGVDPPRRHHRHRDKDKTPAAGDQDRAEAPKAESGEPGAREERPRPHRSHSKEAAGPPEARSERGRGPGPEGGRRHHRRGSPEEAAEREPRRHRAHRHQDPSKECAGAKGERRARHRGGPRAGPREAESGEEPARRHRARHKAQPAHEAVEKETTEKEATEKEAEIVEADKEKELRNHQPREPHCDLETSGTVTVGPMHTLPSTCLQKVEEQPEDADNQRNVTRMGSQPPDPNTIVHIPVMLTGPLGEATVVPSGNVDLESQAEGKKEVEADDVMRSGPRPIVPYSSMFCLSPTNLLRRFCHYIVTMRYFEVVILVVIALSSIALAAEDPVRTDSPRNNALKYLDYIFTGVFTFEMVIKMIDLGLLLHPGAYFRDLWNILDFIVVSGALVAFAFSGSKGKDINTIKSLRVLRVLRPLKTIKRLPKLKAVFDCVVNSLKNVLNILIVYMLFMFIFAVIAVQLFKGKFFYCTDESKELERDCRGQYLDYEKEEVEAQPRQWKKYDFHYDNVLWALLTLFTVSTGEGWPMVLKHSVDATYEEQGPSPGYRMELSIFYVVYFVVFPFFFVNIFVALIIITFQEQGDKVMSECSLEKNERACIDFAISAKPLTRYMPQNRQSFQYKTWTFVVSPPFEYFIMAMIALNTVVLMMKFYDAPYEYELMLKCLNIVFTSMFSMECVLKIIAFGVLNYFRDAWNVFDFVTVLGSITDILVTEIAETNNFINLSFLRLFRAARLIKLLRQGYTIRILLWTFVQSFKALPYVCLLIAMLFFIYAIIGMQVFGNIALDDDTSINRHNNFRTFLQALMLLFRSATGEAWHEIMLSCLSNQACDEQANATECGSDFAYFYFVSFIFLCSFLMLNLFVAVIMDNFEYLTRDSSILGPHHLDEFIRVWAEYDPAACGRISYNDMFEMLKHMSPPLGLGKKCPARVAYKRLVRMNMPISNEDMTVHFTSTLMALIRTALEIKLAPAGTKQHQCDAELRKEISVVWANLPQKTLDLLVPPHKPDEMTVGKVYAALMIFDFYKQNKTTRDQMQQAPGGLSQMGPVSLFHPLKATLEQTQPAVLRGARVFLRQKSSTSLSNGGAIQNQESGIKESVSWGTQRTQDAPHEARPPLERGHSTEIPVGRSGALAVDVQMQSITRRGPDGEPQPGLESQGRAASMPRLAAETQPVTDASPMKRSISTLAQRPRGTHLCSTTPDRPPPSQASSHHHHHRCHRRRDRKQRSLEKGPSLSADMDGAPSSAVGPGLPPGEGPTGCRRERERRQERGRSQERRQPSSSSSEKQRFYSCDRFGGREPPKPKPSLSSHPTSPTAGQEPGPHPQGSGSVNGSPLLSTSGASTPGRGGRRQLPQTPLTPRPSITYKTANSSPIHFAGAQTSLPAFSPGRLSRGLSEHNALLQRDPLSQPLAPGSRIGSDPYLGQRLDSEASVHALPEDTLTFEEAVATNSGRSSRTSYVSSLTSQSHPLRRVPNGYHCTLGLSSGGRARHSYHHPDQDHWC
row,Structure (SMILES),inhibition [%]
1,CCOc1ccc(NC(=O)c2ccc(NC(=O)c3ccc(CN4CCOCC4)cc3)cc2)cc1,65.9
2,Cc1cc(O)c(C=O)c2c1C(=O)Oc1c(CO)c(O)c3c(c1O2)C(O)OC3=O (stereo not given),85.4
3,O=C(O)Cc1sc(Nc2ccc(Cl)cc2)nc1-c1cccs1,38.5
4,CCc1cc2c(=O)c(Oc3ccccc3F)c(C)oc2c(CN(C)C)c1O,52.1
5,COc1ccc(N2CSC3=C(C#N)C(c4cccc(OC)c4OC)CC(=O)N3C2)cc1 (stereo not given),40.4
6,O=C(N/N=C/c1cccc(F)c1)c1cc(-c2ccco2)nc2ccccc12,68.4
7,COc1cc2cc3c(N)c(C(=O)Nc4sc(C)c(C)c4C#N)sc3nc2cc1OC,58.2
8,CCC(=O)Nc1ccc(Nc2nc(Cl)nc(Nc3ccc(NC(=O)CC)cc3)n2)cc1,60.7
9,O=C(N/N=C/c1ccc(F)cc1)c1cc(-c2ccco2)nc2ccccc12,63.1
10,CNC(=O)C1C(=S)NC(N)=C(C#N)C1c1ccccc1 (stereo not given),82.3
11,CCOc1cc(/C=C\[N+](=O)[O-])ccc1OCC(=O)N1CCOCC1,67.1
12,N=C1C(c2nc(-c3ccc(Cl)cc3)cs2)=C(O)CN1NC(=O)c1ccc(O)cc1,47.2
13,Cc1cccc(N2CSC3=C(C#N)C(c4ccc(C)o4)CC(=O)N3C2)c1 (stereo not given),62.4
14,CCOC(=O)c1cc(-c2ccccc2)sc1NC(=O)COC(=O)c1cccc(S(N)(=O)=O)c1,57.9
15,C/C(=N\Nc1ccc(S(N)(=O)=O)cc1[N+](=O)[O-])c1cccs1,80.1
16,Cc1cccc(N2CCN(C(=O)Cn3sc4nc(C)cc(C)c4c3=O)CC2C)c1 (stereo not given),85.3
17,CSc1nc(NCCOCCO)c2sc3nc(-c4ccco4)c4c(c3c2n1)CCC4,51.7
18,O=C(COC(=O)CNC(=O)c1ccc(-c2ccccc2)cc1)NCc1ccco1,65.6
19,COc1ccc(-c2nc3c(c(SCC(=O)Nc4cccc(O)c4)n2)Cc2c(CO)cnc(C)c2O3)cc1,70.6
20,O=C(O)c1cc(N2N=C(C(F)(F)F)/C(=C/C=C/c3ccco3)C2=O)ccc1Cl,84.3
21,Oc1ccc(/C=N/N=C(c2ccccc2)c2ccccc2)c(O)c1O,45.3
22,N=C1/C(=C\c2ccc(-c3ccc(C(=O)O)cc3)o2)C(=O)N=C2SC=C(c3ccccc3)N12,59.5
23,NS(=O)(=O)c1ccc(N/N=C/c2ccc3c(c2)OCO3)c([N+](=O)[O-])c1,75.8
24,COc1cc(/C=C2\SC(=S)N(c3cccnc3)C2=O)ccc1O,67.1
25,C/C=C/C=C\C(=O)Nc1cccc(C2=NOC3(C2)C[C@H](C(N)=O)N(C(=O)/C=C/C)C3)c1 (stereo not given in full),69.4

# From PubChem BioAssay AID2073 (Sanford-Burnham Center for Chemical Genomics, 2009)
